# Experimental data published in the supplement of paper PMC8728848.
# The list shows a part of the results.
# Columns and labels:
# Assay in all cases: glycan array binding signal (z-score within array); higher = stronger binding
# Details in all cases: glycan notation: IUPAC condensed, linker removed
# Gal(a1-3)Gal(b1-4)GlcNAc = molecular target: Gal(a1-3)Gal(b1-4)GlcNAc
# Procedure, shortened: (§1)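 From the Consortium for Functional Glycomics database, 3228 arrays were curated, keeping only those whose protein sequence was available. Binding is given as a within-array Z-score averaged across arrays sharing a protein sequence and across linkers. Negative Z-scores can be read as non-binding.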
# [1] = molecular target: Gal(a1-3)Gal(b1-4)GlcNAc(b1-3)GalNAc
# Procedure, shortened: as §1
# [2] = molecular target: Gal(a1-3)Gal(b1-4)[Fuc(a1-3)]GlcNAc
# Procedure, shortened: as §1
# [3] = molecular target: Gal(a1-3)Gal(b1-4)[Fuc(a1-3)]GlcNAc(b1-2)Man(a1-3)[Gal(a1-3)Gal(b1-4)[Fuc(a1-3)]GlcNAc(b1-2)Man(a1-6)]Man(b1-4)GlcNAc(b1-4)GlcNAc
# Procedure, shortened: as §1
# Gal(a1-3)GalNAc = molecular target: Gal(a1-3)GalNAc
# Procedure, shortened: as §1
# [4] = molecular target: Gal(a1-3)[Gal(a1-4)]Gal(b1-4)GlcNAc
# Procedure, shortened: as §1
# [5] = molecular target: Gal(a1-4)Gal(b1-3)GlcNAc(b1-2)Man(a1-3)[Gal(a1-4)Gal(b1-3)GlcNAc(b1-2)Man(a1-6)]Man(b1-4)GlcNAc(b1-4)GlcNAc
# Procedure, shortened: as §1
# Gal(a1-4)Gal(b1-4)Glc = molecular target: Gal(a1-4)Gal(b1-4)Glc
# Procedure, shortened: as §1
# Gal(a1-4)Gal(b1-4)GlcNAc = molecular target: Gal(a1-4)Gal(b1-4)GlcNAc
# Procedure, shortened: as §1
# [6] = molecular target: Gal(a1-4)Gal(b1-4)GlcNAc(b1-2)Man(a1-3)[Gal(a1-4)Gal(b1-4)GlcNAc(b1-2)Man(a1-6)]Man(b1-4)GlcNAc(b1-4)GlcNAc
# Procedure, shortened: as §1
# [7] = molecular target: Gal(a1-4)Gal(b1-4)GlcNAc(b1-3)Gal(b1-4)Glc
# Procedure, shortened: as §1
# Gal(a1-4)GlcNAc = molecular target: Gal(a1-4)GlcNAc
# Procedure, shortened: as §1
# Gal(a1-6)Glc = molecular target: Gal(a1-6)Glc
# Procedure, shortened: as §1
# Gal(b1-2)Gal = molecular target: Gal(b1-2)Gal
# Procedure, shortened: as §1
# Gal(b1-3)Gal = molecular target: Gal(b1-3)Gal
# Procedure, shortened: as §1
# Gal(b1-3)Gal(b1-4)GlcNAc = molecular target: Gal(b1-3)Gal(b1-4)GlcNAc
# Procedure, shortened: as §1
# [8] = molecular target: Gal(b1-3)Gal(b1-4)GlcNAc(b1-2)Man(a1-3)[Gal(b1-3)Gal(b1-4)GlcNAc(b1-2)Man(a1-6)]Man(b1-4)GlcNAc(b1-4)GlcNAc
# Procedure, shortened: as §1
# Gal(b1-3)GalNAc = molecular target: Gal(b1-3)GalNAc
# Procedure, shortened: as §1
# [9] = molecular target: Gal(b1-3)GalNAc(a1-3)[Fuc(a1-2)]Gal(b1-4)Glc
# Procedure, shortened: as §1
# [10] = molecular target: Gal(b1-3)GalNAc(a1-3)[Fuc(a1-2)]Gal(b1-4)GlcNAc
# Procedure, shortened: as §1
# [11] = molecular target: Gal(b1-3)GalNAc(b1-3)Gal(a1-4)Gal(b1-4)Glc
# Procedure, shortened: as §1
# [12] = molecular target: Gal(b1-3)GalNAc(b1-4)Gal(b1-4)Glc
# Procedure, shortened: as §1
# [13] = molecular target: Gal(b1-3)GalNAc(b1-4)[Neu5Ac(a2-3)]Gal(b1-4)Glc
# Procedure, shortened: as §1
# Gal(b1-3)GlcNAc = molecular target: Gal(b1-3)GlcNAc
# Procedure, shortened: as §1
# [14] = molecular target: Gal(b1-3)GlcNAc(a1-6)Gal(b1-4)GlcNAc
# Procedure, shortened: as §1
# [15] = molecular target: Gal(b1-3)GlcNAc(b1-2)Man(a1-3)[Gal(b1-3)GlcNAc(b1-2)Man(a1-6)]Man(b1-4)GlcNAc(b1-4)GlcNAc
# Procedure, shortened: as §1
# [16] = molecular target: Gal(b1-3)GlcNAc(b1-2)Man(a1-3)[Gal(b1-3)GlcNAc(b1-2)Man(a1-6)]Man(b1-4)GlcNAc(b1-4)[Fuc(a1-6)]GlcNAc
# Procedure, shortened: as §1
# [17] = molecular target: Gal(b1-3)GlcNAc(b1-2)[Gal(b1-3)GlcNAc(b1-6)]Man(a1-6)[Gal(b1-3)GlcNAc(b1-2)Man(a1-3)]Man(b1-4)GlcNAc(b1-4)GlcNAc
# Procedure, shortened: as §1
# [18] = molecular target: Gal(b1-3)GlcNAc(b1-3)Gal(b1-3)GlcNAc
# Procedure, shortened: as §1
# [19] = molecular target: Gal(b1-3)GlcNAc(b1-3)Gal(b1-4)Glc
# Procedure, shortened: as §1
# [20] = molecular target: Gal(b1-3)GlcNAc(b1-3)Gal(b1-4)GlcNAc
# Procedure, shortened: as §1
# [21] = molecular target: Gal(b1-3)GlcNAc(b1-3)Gal(b1-4)GlcNAc(b1-6)[Gal(b1-3)GlcNAc(b1-3)]Gal(b1-4)Glc
# Procedure, shortened: as §1
# [22] = molecular target: Gal(b1-3)GlcNAc(b1-3)Gal(b1-4)[Fuc(a1-3)]GlcNAc(b1-6)[Gal(b1-3)GlcNAc(b1-3)]Gal(b1-4)Glc
# Procedure, shortened: as §1
# [23] = molecular target: Gal(b1-3)GlcNAc(b1-3)GalNAc
# Procedure, shortened: as §1
# [24] = molecular target: Gal(b1-3)GlcNAc(b1-6)Gal(b1-4)GlcNAc
# Procedure, shortened: as §1
# [25] = molecular target: Gal(b1-3)[Fuc(a1-4)]GlcNAc
# Procedure, shortened: as §1
# [26] = molecular target: Gal(b1-3)[Fuc(a1-4)]GlcNAc(b1-2)Man(a1-3)[Gal(b1-3)[Fuc(a1-4)]GlcNAc(b1-2)Man(a1-6)]Man(b1-4)GlcNAc(b1-4)GlcNAc
# Procedure, shortened: as §1
# [27] = molecular target: Gal(b1-3)[Fuc(a1-4)]GlcNAc(b1-2)Man(a1-3)[Gal(b1-3)[Fuc(a1-4)]GlcNAc(b1-2)Man(a1-6)]Man(b1-4)GlcNAc(b1-4)[Fuc(a1-6)]GlcNAc
# Procedure, shortened: as §1
binder,measurement,setting,value
"ConA (Canavalia ensiformis), P02866 (protein) MAISKKSSLFLPIFTFITMFLMVVNKVSSSTHETNALHFMFNQFSKDQKDLILQGDATTGTDGNLELTRVSSNGSPQGSSVGRALFYAPVHIWESSAVVASFEATFTFLIKSPDSHPADGIAFFISNIDSSIPSGSTGRLLGLFPDANVIRNSTTIDFNAAYNADTIVAVELDTYPNTDIGDPSYPHIGIDIKSVRSKKTAKWNMQNGKVGTAHIIYNSVDKRLSAVVSYPNADSATVSYDVDLDNVLPEWVRVGLSASTGLYKETNTILSWSFTSKLKSNEIPDIATVV",glycan array binding signal (z-score),Gal(a1-3)Gal(b1-4)GlcNAc,-0.247
same,glycan array binding signal (z-score),[1],-0.276
same,glycan array binding signal (z-score),[2],-0.222
same,glycan array binding signal (z-score),[3],-0.227
same,glycan array binding signal (z-score),Gal(a1-3)GalNAc,-0.181
same,glycan array binding signal (z-score),[4],-0.281
same,glycan array binding signal (z-score),[5],0.48
same,glycan array binding signal (z-score),Gal(a1-4)Gal(b1-4)Glc,-0.293
same,glycan array binding signal (z-score),Gal(a1-4)Gal(b1-4)GlcNAc,-0.283
same,glycan array binding signal (z-score),[6],0.321
same,glycan array binding signal (z-score),[7],-0.262
same,glycan array binding signal (z-score),Gal(a1-4)GlcNAc,-0.29
same,glycan array binding signal (z-score),Gal(a1-6)Glc,-0.29
same,glycan array binding signal (z-score),Gal(b1-2)Gal,-0.287
same,glycan array binding signal (z-score),Gal(b1-3)Gal,-0.28
same,glycan array binding signal (z-score),Gal(b1-3)Gal(b1-4)GlcNAc,-0.27
same,glycan array binding signal (z-score),[8],0.087
same,glycan array binding signal (z-score),Gal(b1-3)GalNAc,-0.272
same,glycan array binding signal (z-score),[9],-0.248
same,glycan array binding signal (z-score),[10],-0.247
same,glycan array binding signal (z-score),[11],-0.272
same,glycan array binding signal (z-score),[12],-0.28
same,glycan array binding signal (z-score),[13],-0.24
same,glycan array binding signal (z-score),Gal(b1-3)GlcNAc,-0.295
same,glycan array binding signal (z-score),[14],-0.245
same,glycan array binding signal (z-score),[15],0.916
same,glycan array binding signal (z-score),[16],0.562
same,glycan array binding signal (z-score),[17],-0.189
same,glycan array binding signal (z-score),[18],-0.197
same,glycan array binding signal (z-score),[19],-0.299
same,glycan array binding signal (z-score),[20],-0.264
same,glycan array binding signal (z-score),[21],-0.168
same,glycan array binding signal (z-score),[22],-0.18
same,glycan array binding signal (z-score),[23],-0.238
same,glycan array binding signal (z-score),[24],-0.229
same,glycan array binding signal (z-score),[25],-0.274
same,glycan array binding signal (z-score),[26],-0.093
same,glycan array binding signal (z-score),[27],0.603
